In PubChem BioAssay AID485344 (National Center for Advancing Translational Sciences (NCATS), 2010):
In all, about 340,000 compounds went through this assay and about 6,900 (2%) were called active. Rule as the data show it: active = inhibition above about 30%; inactive = below that, where a call was filed. The list shows a part of the results, in another mix than the full data. Entries without a call were filed so in the source.

biological target: D(2) dopamine receptor (Homo sapiens) (UniProt P14416); assay: HTS Assay for Allosteric Antagonists of the Human D2 Dopamine Receptor: Primary Screen for Antagonists; conditions: HEK293 TREx D2 cells, calcium flux, dopamine EC80; at 10 µM; stronger effect = higher value; also: 0% is about no effect
Outline: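 Calcium flux kinetic readout in an inducible HEK293 TREx D2 line plated overnight at 30 C. After 180 s compound exposure, an EC80 dopamine challenge follows with another 180 s kinetic read to detect antagonism.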

Sequence of UniProt P14416 (P14416 whole entry, looked up): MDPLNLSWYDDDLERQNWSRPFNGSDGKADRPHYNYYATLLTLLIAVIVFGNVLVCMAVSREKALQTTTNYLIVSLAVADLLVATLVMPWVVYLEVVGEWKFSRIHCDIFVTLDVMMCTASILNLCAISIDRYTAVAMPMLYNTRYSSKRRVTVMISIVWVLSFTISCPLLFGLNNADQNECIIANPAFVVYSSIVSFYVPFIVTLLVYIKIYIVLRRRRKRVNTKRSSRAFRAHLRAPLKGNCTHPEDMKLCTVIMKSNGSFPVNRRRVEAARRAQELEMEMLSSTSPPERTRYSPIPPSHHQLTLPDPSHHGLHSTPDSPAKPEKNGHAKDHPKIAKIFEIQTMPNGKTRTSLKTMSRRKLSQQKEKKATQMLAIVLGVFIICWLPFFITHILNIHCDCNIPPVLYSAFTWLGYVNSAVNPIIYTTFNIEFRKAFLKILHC

Compound | inhibition
Cc1c(F)cccc1NC(=O)C1CCCN1S(=O)(=O)c1ccc(F)cc1 (stereo not given) | -15.6%
CC(=O)c1cccc(-n2c(=O)c3c4c(sc3n(Cc3ccccc3Cl)c2=O)CN(C(C)=O)CC4)c1 | 9.95%
CCCOC(=O)c1c(NC(=O)c2nc3ncccn3n2)sc(C(=O)OCC)c1C | -12.9%
COc1cc(OC)c(C2C=C(C(=O)O)Nc3ncnn32)cc1OC (stereo not given) | -12.3%
COc1ccc(S(=O)(=O)NCc2cn3c(C)csc3n2)cc1F | active: 31.7%
Cc1ccc(C2CCN(C(=O)c3cnn(-c4ccccc4Cl)c3C3CCN(C(=O)OC(C)(C)C)CC3)C2)cc1 (stereo not given) | 8.9%
COc1ccc(CNC(=O)c2cc3ccccn3n2)c(OC)c1 | 1.98%
O=C(c1ccc2c(c1)OCO2)c1cn(Cc2ccc(F)cc2)c2ccccc2c1=O | 7.65%
Cn1nc(C(=O)N2CCN(c3ccccc3)CC2)c2c1-c1ccccc1SC2 | 9.04%
CCCCN(CC)C(=O)Cn1c(=O)n(-c2ccc(OCC)cc2)c(=O)c2c3c(sc21)CCC3 | -3.21%
CCOC(=O)c1ccc(N(C(=O)c2ccco2)C(C(=O)NC2CCCC2)c2ccncc2)cc1 (stereo not given) | active: 35.8%
Cn1c(=O)c2sccc2n2c(CCCC(=O)Nc3ccc(F)cc3F)nnc12 | 5.38%
COCCCNc1ncnc2c1c(-c1ccccc1)cn2-c1ccc(C)c(Cl)c1 | 6.57%
Cc1cc2nn(-c3ccc(Cl)cc3)nc2cc1NC(=O)C(C)C | -4.78%
O=C(COc1ccc(Cl)cc1)Nc1cc(-c2ccccc2)no1 | -1.81%
COc1ccc(OC)c(NC(=O)CN2C(=O)CC(c3ccco3)Sc3ccccc32)c1 (stereo not given) | -5.07%
COc1ccc2c(c1)c1c(c(=O)n(-c3ccccc3C)c(=O)n1Cc1ccccc1C)n2C | 6.58%
CCc1ccc(NC(=O)CSC2=Nc3ccccc3C3=NC(CCC(=O)NCc4ccccc4OC)C(=O)N23)cc1 (stereo not given) | -6.2%
CCOc1ccc(NC(=O)Cn2c(=O)n(CCc3ccccc3)c(=O)c3c4c(sc32)CN(C(C)=O)CC4)cc1 | -2.07%
CCOCCCNC(=O)c1cnc2sc(N3CCCCCC3)nn2c1=O | 11.1%

Compound | inhibition
Cc1nn(-c2ccccc2)c(OC(=O)c2ccc(Br)cc2)c1S(=O)(=O)c1ccccc1 | -7.23%
Cc1ccc(CC(=O)N(Cc2nc(-c3ccc(C)cc3)no2)C(C)C)cc1 | -2.27%
Cc1ccc(C)c(N2CCN(C(=O)c3cccc(-n4c(C)nc5cccnc54)c3)CC2)c1 | 1.33%
CCOc1ccc(OCC)c(NC(=O)c2cc(C)nc3c2c(C)nn3-c2cccc(Cl)c2C)c1 | 17.5%
Cc1ccc(CNC(=O)C(C(C)C)N2Cc3ccccc3C2=O)cc1 (stereo not given) | 12.6%
CCN(c1ccc(OC)cc1)S(=O)(=O)c1c(C(=O)N2CCCCCC2)c(C)n(C)c1C | 16.4%
CN(C(=O)CSc1cn(CC(=O)N2CCCCCC2)c2ccccc12)c1ccccc1 | 12.9%
O=C(NC1CCCCC1)c1ccc(Cn2c(SCc3cccc(F)c3)nc3cccnc32)cc1 | 14.1%
CCCCNc1sc(S(=O)(=O)CC)nc1S(=O)(=O)c1ccc(C)cc1 | 6.14%
Cc1ccc(N2CC(c3nnc(Cc4ccc(Cl)cc4)o3)CC2=O)cc1 (stereo not given) | -1.83%
CNS(=O)(=O)c1cn(CC(=O)Nc2ccc(F)cc2F)cc1S(=O)(=O)NC | -1.97%
Cc1cccc(N2CCN(C(=O)Cn3c(=O)c4cccn4c4ccc(F)cc43)CC2C)c1 (stereo not given) | -2.91%
CCc1ccccc1NC(=O)CSc1nnc(-c2cc(OC)c(OC)c(OC)c2)o1 | 1.27%
CCC(=O)Nc1sc2c(c1C(N)=O)CCN(Cc1ccccc1)C2 | active: 38.1%
Cc1ccc(-c2c(CN3CCN(c4cc(Cl)ccc4C)CC3)csc2C)cc1 | -0.8%
CC(=O)N1CCc2c(sc3c2c(=O)n(-c2ccccc2Cl)c(=O)n3C)C1 | -12%
O=C(CSc1nc2ccccc2n1CC(=O)Nc1ccc(F)cc1F)Nc1ccc(F)cc1 | 2.38%
COc1ccc(-n2c(SCc3nc(-c4ccc(C)cc4)no3)nnc2-c2ccncc2)cc1 | -12.1%
CCOc1ccc2c(c1)c(=O)c(S(=O)(=O)c1ccc(C)cc1)cn2CC(=O)Nc1ccc(C)cc1 | -0.559%
CCn1c(=O)c2cc(C(=O)NCCc3cccc(C)c3)sc2c2ccccc21 | 12.5%

Compound | inhibition
COC(=O)C1CCN(Cc2cn(-c3ccccc3)nc2-c2ccc3c(c2)OCO3)CC1 | active: 81.9%
CCc1ccccc1Nc1nn2c(=O)c3ccc(C(=O)NCCc4ccccc4)cc3nc2s1 | -1.71%
Cc1c(Cl)cccc1NC(=O)CN1C(=O)c2ccccc2Sc2ncccc21 | -15.3%
Cc1cccc(C(=O)NC2(C(F)(F)F)N=C(c3ccccc3)N(Cc3ccccc3)C2=O)c1 (stereo not given) | 1.06%
CC(=O)c1ccc(NC(=O)c2cccc(NC(=O)N3CCSc4ncccc43)c2)cc1 | 1.33%
Cc1cc(C)cc(N(C)S(=O)(=O)c2nnc(NC(=O)COc3ccc(C)c(C)c3)s2)c1 | 5.32%
CCOCCCNC(=O)c1c(NC(=O)Cc2coc3c(C)c(C)ccc23)sc2c1CCC2 | -6.53%
COC(=O)c1cc(C)nc2c1c(=O)nc(SCc1cc(C)ccc1C)n2C1CC1 | -27.5%
CCCN(Cc1cc2cc(C)ccc2[nH]c1=O)C(=O)c1cccc(Cl)c1 | -6.71%
COc1cc(OC)c(NC(=O)COc2ccccc2-c2nnc(-c3ccccc3)o2)cc1Cl | 2.42%
O=c1/c(=C\c2cc([N+](=O)[O-])cc([N+](=O)[O-])c2O)sc2nc3ccccc3n12 | active: 31%
Cc1cccc(NC(=O)C2CCC(CNS(=O)(=O)c3ccc4c(c3)CCCC(=O)N4)CC2)c1C (stereo not given) | -2.75%
CCN1CCOC(=O)C1CC(=O)Nc1ccccc1C(F)(F)F (stereo not given) | -2.28%
Cc1nc(-c2ccc(F)cc2)sc1CCNC(=O)c1ccccc1 | 13.7%
O=Cc1ccc(OCC(=O)NCC2CCCO2)cc1 (stereo not given) | active: 30.1%
CCOC(=O)c1c(C)oc2nc(C)nc(N3CCN(c4ccc(C)cc4C)CC3)c12 | -3.83%
COc1ccc(C(=O)NCC(c2ccco2)S(=O)(=O)c2ccccc2)cc1 (stereo not given) | -13.6%
CC(=O)N1CCCc2cc(S(=O)(=O)N3CCC(C(=O)NCc4ccc(F)cc4)CC3)ccc21 | -7.48%
COc1ccc2oc(=O)c(C(=O)NCCc3c(C)[nH]c4c(C)cccc34)cc2c1 | -14.1%
COC(=O)c1cc(NC(=O)CCS(=O)(=O)c2cc(Br)cc3c2N(C(=O)C2CC2)CC3)cc(C(=O)OC)c1 | -14.5%
